# Measurements: ChEMBL document CHEMBL4888484, “Replenishing the malaria drug discovery pipeline: Screening and hit evaluation of the MMV Hit Generation Library 1 (HGL1) against asexual blood stage Plasmodium falciparum ,using a nano luciferase reporter read-out” (2022)
# In all, about 150,000 compounds went through this assay and about 540 (0.36%) showed an effect of 50% or more. The list shows a part of the results.
# Tested on: Plasmodium falciparum
# Assay: Primary screen in NF54 nanoGlo assay, in single point, at 2uM, 72h; a lower Z score goes with more inhibition
# Format: functional, Erythrocyte
# Settings: timepoint 72 hour
Structure (SMILES),% Inhibition [%],Z score
O=C([C@@H]1CCCCN1C(=O)c1cccnc1)N1CCOC2(CCC2)C1,-6,0.72
O=S(=O)(c1ccc(-c2cncs2)cc1)N1CCNCC1,-3,0.4
C[C@@H](CNC(N)=NC1CC1)c1ccccc1,4,-0.45
Cc1cnc(CCNC(=O)c2cn(C)cn2)n1C1CC1,-7,1.06
COCCNC(=O)NC1C(C)CCCC1C (stereo not drawn),-14,2.21
COc1c(Cl)cc(C#N)cc1Cl,-9,1.17
COc1ccc(CN(C(=O)Cc2ccc(Cl)c(Cl)c2)C2CC2)c(OC)c1,2,-0.29
COC(=O)[C@H](OC(=O)c1cnn2c(C(F)(F)F)cc(-c3ccccc3)nc12)c1ccccc1,-9,1.23
CCn1c(=O)c(N2CCN(C(=O)Nc3cccc(C)c3C)CC2)nc2ccccc21,29,-4.21
COc1ccc(CCNC(=O)[C@H]2CCCN(c3nc(C)nc4onc(C)c34)C2)cc1OC,-9,1.14
Cc1ccc2c(c1)NC(C)(C)c1ssc(=S)c1-2,-5,0.98
CN(C)C(=O)N1CCN(Cc2ccc(F)c(F)c2)[C@@H]2CS(=O)(=O)C[C@@H]21,-9,1.88
CN1C(=O)CCC(C(=O)N2Cc3ccccc3C2)C1c1cnn(C)c1 (stereo not drawn),-11,1.3
CC1(C)CC(NC(=O)OC(C)(C)C)(C(=O)O)C1,1,-0.1
COc1ccc(C(=O)N2CCN(c3ncccc3-c3nnc(C(C)C)o3)CC2)c(C)c1,-25,2.37
Cc1nc2snnc2c(=O)n1Cc1ccccc1,-1,0.2
O=C(c1cc(Cl)sc1Cl)N1CC[C@@H](c2cccs2)S(=O)(=O)CC1,-20,3.49
Cc1nccn1CC1CCN(Cc2cccnc2N)CC1,-5,0.93
O=C([C@@H]1CCCCN1S(=O)(=O)c1cccc(F)c1)N1CCCC1,-2,0.42
CC(=O)N1CCC[C@@](NC2CCCCC2)(c2nnnn2CCC(C)C)C1,-4,0.46
Cc1noc(COC2CN(C(=O)NCC(F)(F)C(C)(C)C)C2)n1,-18,1.96

Structure (SMILES),% Inhibition [%],Z score
NC(=O)C1CCN(C(=O)c2coc(NC(=O)c3ccsc3)n2)CC1,-2,0.31
Cc1cc(C)n(CCC(=O)NC[C@H]2CCN(c3ccccc3C)C2)c(=O)n1,-9,1.61
COCCn1c(C)cc(=O)c(C(=O)N2CCN(c3cccc(Cl)c3)CC2)c1CC1CCCC1,-12,1.53
Cc1ncccc1C(=O)NC[C@@]12CCCC=C1N(Cc1ccccc1)C(=O)CC2,-2,0.26
COCC1(O)CN(C(=O)c2cc(F)c(Oc3ccccc3)c(F)c2)C1,2,-0.42
CC(NC(=O)N1CC2CCC1C2)c1cccc(-n2cccn2)c1 (stereo not drawn),-14,1.67
O=C1NC2(CCCC2)C(=O)N1Cc1cnn(-c2ccccc2)n1,1,-0.1
O=C(Nc1ccc2c(c1)OCCO2)[C@@H]1CCCc2ccccc21,-2,0.35
CC[C@H]1COCCN1C(=O)Nc1ccc2c(c1)N(CC)CC2,-7,0.75
CCn1cc(NC(=O)Cn2cc(-c3cc(C)nc(NC)n3)cn2)nn1,-6,1.04
CNC(=O)NCC(=O)N1CCCCC[C@@H]1CC(C)C,-9,1.58
CCn1nc(C)c(C(=O)N[C@@H]2[C@@H]3CCO[C@@H]3[C@H]2N2CCCC2)c1C,-7,1.32
O=C(c1ccccn1)N1CCN(Cc2ccccn2)[C@@H]2CS(=O)(=O)C[C@@H]21,-10,1.79
C[C@@H](c1cccnc1)N(C)Cc1cnc2cnccn12,-3,0.35
Cc1nc([C@@H]2CCCCN2Cc2nc(C(C)(C)C)co2)no1,2,-0.34
COc1ccc(C=C(C)CN2CCC[C@H](CNC(C)=O)C2)cc1,31,-3.51
C[C@H](Oc1ccc(F)cc1)c1nnc2n1CCOC2,14,-1.75
CC(=O)c1ccc(N2CCN(C(=O)C[C@H]3C(=O)NCCN3Cc3ccoc3)CC2)cc1,1,-0.18
CC(C)=CCN1CCC[C@H](Cn2cncn2)C1,-17,2.17
Cn1cccc1C(=O)C(=O)NCCc1cnn(-c2ccccc2)c1,-9,1.53
O=S(=O)(c1ccccc1)N1CC(c2nc(CCOCC3CC3)no2)C1,-2,0.24

Structure (SMILES),% Inhibition [%],Z score
O=C(Oc1ccccc1C(=O)OC1CCCCC1)c1cccnc1,0,-0.05
CC(C)[C@@H]1NC(=O)N(c2ccc(Oc3ccccc3)cc2)C1=O,30,-3.39
COCCn1nnnc1[C@@H]1CN(C(=O)c2cn3ccc(C)cc3n2)CCO1,-8,1.49
Cc1cc(NC(=O)N[C@H]2CCCN(c3ccccc3F)C2)c[nH]c1=O,-1,0.08
Oc1cccc(C2Nc3ccc(Br)cc3C3OCCCC23)c1 (stereo not drawn),-10,1.14
O=C(NCc1cccnc1N1CCOCC1)c1ccc2cccc(Cl)c2n1,4,-0.61
COc1c[nH]c(C(=O)N2CCN(c3ccc(F)cc3)CC2)cc1=O,12,-1.58
C[C@@H](Cc1ccccc1F)N1CCC(=O)N(Cc2ccncc2)CC1,0,-0.01
COc1ccc(NC(=O)N2C3CCC2CC2(CC2)C3)c(Br)c1,14,-1.6
Cn1nccc1[C@@H]1NC(=O)CC[C@H]1NC(=O)c1cncc(Cl)c1,3,-0.42
COc1ccccc1CN1CC(=O)N2Cc3[nH]c4ccccc4c3C[C@H]2C1=O,-8,1.47
COc1cccc(C(=O)N2CCC[C@@](CO)(CCc3ccccc3)C2)c1,-4,0.83
Cc1nc(N2CCN(C(=O)C(C)C)CC2)cc(-n2ccnc2)n1,3,-0.5
Cc1nc(CN2CCC[C@H](Nc3ccc(Cl)cn3)CC2)c2ccccn12,-1,0.18
Cc1ccc(S(=O)(=O)N2c3ccccc3N(C(=O)Nc3ccccc3)[C@@H]2c2ccc(N(C)C)cc2)cc1,30,-3.37
CC1CCCC(C)N1S(=O)(=O)c1ccc(NC(=O)COCC2CC2)cc1 (stereo not drawn),-1,0.24
CC1CC(C#N)(C(=O)NC[C@H](C)Oc2ccc(Cl)cc2)C1 (stereo partly drawn),-11,1.37
O=C(Cn1nnnc1CN1CCCC1)N[C@H](c1ccncc1)c1ccc(F)cc1,-12,1.66
Cc1cccc(OCC(=O)N2CC3(C[C@H](N4CCCCC4)CO3)C2)c1,-8,1.19
O=C(c1ccc(F)cc1)N1CCC(N2CCS(=O)(=O)CC2)CC1,-12,1.04
CC1CCN(Cc2nc(C3CC3)no2)CC1,-7,0.85

Structure (SMILES),% Inhibition [%],Z score
CC(C)C[C@H](NC(=O)c1n[nH]c2c1CCC2)c1nnc2ccccn12,6,-0.75
Cc1c(C(=O)N(Cc2ccccc2)C2CC2)cnn1C,-9,1.2
CCC(=O)N(Cc1cc2ccccc2[nH]c1=O)C1CCCCC1,7,-0.78
CN1CC[C@@H]2CN(C(=O)Nc3cccc(Cl)c3Cl)C[C@@H]21,4,-0.67
CCOC(=O)c1ccc(Nc2nc(C(C(F)(F)F)(C(F)(F)F)C(F)(F)F)nc(C(C(F)(F)F)(C(F)(F)F)C(F)(F)F)n2)cc1,-16,2.11
CC(C)N(C(=O)c1n[nH]c2ccc(Cl)cc12)C1CC1,25,-3.12
CCN1CCN(C(=O)c2cc3n(n2)CCN(Cc2c(Cl)cccc2Cl)C3=O)CC1,-9,0.88
Cc1noc(C)c1CN(C)C(=O)NCCc1cc(F)cc2c1OCOC2,-8,1.05
O=C(NCc1ccco1)c1ccc2c(c1)C(=O)N(Cc1ccccc1)C2=O,-13,1.64
O=C(Nc1cnnn1-c1ccccc1)[C@H]1CCCO1,-9,1.06
CC1CCN(C(=O)c2c3c(nc4ccccc24)C(=O)N(C2CCCCC2)C3)CC1,-8,0.88
CC(C)NC[C@H](O)COC1CCC(C(C)(C)C)CC1 (stereo partly drawn),-7,0.93
O=C(CN1CCN(c2ccc(F)c(F)c2)C1=O)N1CCc2ccccc2C1,12,-1.43
O=C(NCCc1ccccc1)c1cc(Cn2cnc3ccccc32)on1,-15,1.97
CCC1CN(C(=O)C(Cc2ccc3c(c2)OCO3)NC(C)=O)CCO1 (stereo not drawn),2,-0.34
CC(C)(C)OC(=O)NC1CCCCCCC1C(N)=O (stereo not drawn),-11,1.44
CC(=O)N[C@H]1C[C@@H](c2cc(F)cc(F)c2)O[C@@H](C(C)(C)CN(C)C)C1,-11,1.37
CC(NCC1(CCO)CCOC1)c1nc2cc(Cl)ccc2n1C (stereo not drawn),-3,0.58
Cc1nccc(C(=O)O[C@@H](C(=O)N2CCCC2)c2ccccc2)n1,-4,0.44
CN(C(=O)c1cc(O)nc2ccccc12)c1nccs1,-9,1.16
O=C(CNC(=O)c1ccncc1)N[C@H]1CCCc2ccccc21,-12,1.58
